Data on 69 compounds can be found in PubChem BioAssay AID1347073 (National Center for Advancing Translational Sciences (NCATS), 2019).

In all, about 45,000 compounds went through this assay and about 200 (0.44%) were called active. Another 7% or so got no clear call; they are omitted. The call rests on the fitted dose curve; in most records, active means well fitted activation curve with a large enough effect; inconclusive means small, poorly fitted or top-dose-only effect; inactive means no such curve, though single readings can be large or run the other way. This is one part of the list.

The assay can be described thus: qHTS of TDP-43 Inhibitors: NCGC Sytravon Library Screen. Further: 0% is about no effect; nearly all actives have a fitted effect of over 55% in size. Particulars: yeast TDP-43 toxicity rescue, BacTiter-Glo growth, 24 h; series mostly up to 46.1 µM; growth rescue (activation): at the top concentration. The method in brief:
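TDP-43-expressing yeast, pregrown in raffinose, seeded at OD600 0.02 in galactose medium with compound for 24 hr at 30 deg C. Growth read by BacTiter-Glo luminescence, so rescue of toxicity appears as activation.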
For `N#Cc1cc(C(=O)c2ccccc2O)cn(-c2ccc(Cl)cc2)c1=O`, the “growth rescue (activation)” value is inactive: 17.9%.

Regarding `O=C(NNc1cccc(Cl)n1)C(F)(F)F`, the “growth rescue (activation)” value is inactive: -5.96%.

Regarding `Cc1cc(NC(=O)CSc2nc3c(cc2C#N)CCC3)no1`, the “growth rescue (activation)” value was inactive: 2.32%.

Consider `CCCCNC(=O)C1CCC(CNS(=O)(=O)c2ccc(C)cc2)CC1` (centres undefined), for which the “growth rescue (activation)” value is inactive: 8.54%.

For `COCCCN1C(=O)C(=O)/C(=C(/O)c2ccc(OC(C)C)cc2)C1c1cccnc1` (centres undefined), the “growth rescue (activation)” value was inactive: 4.84%.

In the case of `CCNC(=S)N/N=C(\C)c1ccc(Cl)s1`, the “growth rescue (activation)” value is inactive: 25.8%.

As for `COc1ccc(NC(=O)CCNS(=O)(=O)c2ccc(Cl)c([N+](=O)[O-])c2)cc1S(N)(=O)=O`, the “growth rescue (activation)” value is inactive: 13.9%.

For the compound `CC(Sc1nnc2n1CCCCC2)C(=O)Nc1ccc(S(N)(=O)=O)cc1` (centres undefined), the “growth rescue (activation)” value was inactive: 34.4%.

Regarding `COc1ccc(C(C(=O)NCC2CCCO2)N(C(=O)CNC(=O)c2cccs2)c2ccc(C)cc2)cc1OC` (centres undefined), the “growth rescue (activation)” value was inactive: 6.97%.

In the case of `COc1ccccc1CCNC(=O)C1(C)CC1(Cl)Cl` (centres undefined), the “growth rescue (activation)” value is inactive: 13.7%.

On to `O=P(OC1CCCCC1)(OC1CCCCC1)C(O)c1cccnc1` (centres undefined), for which the “growth rescue (activation)” value was inactive: -5.8%.

As for `O=C(NNC(=S)NC1CCCCC1)c1sc2ccccc2c1Cl`, the “growth rescue (activation)” value was inactive: 13.1%.

Consider `CC(=O)c1ccc(C(=O)N2CCCC(C(=O)c3cc(F)ccc3F)C2)s1` (centres undefined), for which the “growth rescue (activation)” value was inactive: 27.8%.

As to `Cc1nc(NCc2ccc(S(N)(=O)=O)cc2)c2c(C)c(C)sc2n1`, the “growth rescue (activation)” value is inactive: -0.394%.

As for `O=C(Nc1ccc2c(c1)C(=O)OC2)c1ccc(Cl)cc1`, the “growth rescue (activation)” value was inactive: 7.14%.

With `N#C/C(=N\Nc1ccccc1[N+](=O)[O-])C(=N)N1CCCCC1`, the “growth rescue (activation)” value is inactive: -24.9%.

Consider `O=C(NCc1cccnc1)c1cccc(NC(=O)c2ccco2)c1`, for which the “growth rescue (activation)” value is inactive: 7.72%.

Take `CN(C)CCCNc1oc(/C=C/c2ccc(F)cc2)nc1C#N`: the “growth rescue (activation)” value is inactive: 12%.

As to `O=[N+]([O-])c1cc(S(=O)(=O)Nc2ccc(Cl)cc2)ccc1N/N=C/c1ccncc1`, the “growth rescue (activation)” value was inactive: -10.6%.

As to `CN=C1S/C(=C\c2ccc(Cl)cc2)C(=O)N1C`, the “growth rescue (activation)” value was inactive: 27.4%.

Regarding `CCC(=O)Nc1ccc(C(=O)CSc2nnc(-c3ccc(NS(C)(=O)=O)cc3)n2C)cc1OC`, the “growth rescue (activation)” value was inactive: 1.93%.

Regarding `Cn1c(=O)c2c(nc(CN3CCN(C(c4ccccc4)c4ccccc4)CC3)n2CCCO)n(C)c1=O`, the “growth rescue (activation)” value was inactive: 0.875%.

Take `CCN(CC)c1nc2ccccc2n(Cc2cccc(OC)c2)c1=O`: the “growth rescue (activation)” value is inactive: 29.6%.

Regarding `CN(CC1COc2ccccc2O1)C(=O)CSc1ncccn1` (centres undefined), the “growth rescue (activation)” value was inactive: 7.78%.

`CCOC(=O)/C(=C\c1c[nH]c2ccccc12)NC(C)=O`: the “growth rescue (activation)” value was inactive: 5.58%.

For the compound `CCOc1ccc(S(=O)(=O)NCCCn2ccnc2)cc1NC(C)=O`, the “growth rescue (activation)” value was inactive: -1.29%.

Take `O=C1/C(=C/c2ccc(O)c(O)c2)SC(=S)N1Nc1ccccc1`: the “growth rescue (activation)” value is inactive: 8.34%.

Regarding `O=C1CCCC(O)=C1C=NCCc1ccccc1`, the “growth rescue (activation)” value is inactive: 10.4%.

Take `CCC1OC23CCCCC2C(C#N)(C(=N)O3)C1(C#N)C#N` (centres undefined): the “growth rescue (activation)” value was inactive: -1.89%.

As to `CCOc1ccc(C=NNc2ccc(S(=O)(=O)Nc3ccccc3C(=O)O)cc2[N+](=O)[O-])cc1`, the “growth rescue (activation)” value is inactive: 5.71%.

On to `COc1cc(CN(C(=O)COc2ccc(C)c(C)c2)c2ccccn2)cc(OC)c1OC`, for which the “growth rescue (activation)” value was inactive: 13.3%.

Consider `Cc1cc(OCC(=O)N(Cc2ccco2)C2CCS(=O)(=O)C2)ccc1Cl` (centres undefined), for which the “growth rescue (activation)” value is inactive: 2.75%.

With `Cc1oc(-c2cccc(F)c2)nc1CN(Cc1ccccc1)C[C@@H]1CCC(=O)N1`, the “growth rescue (activation)” value was inactive: -1.06%.

As for `O=c1c2[nH]c3cccc(Cl)c3c2ncn1CC1CCCO1` (centres undefined), the “growth rescue (activation)” value was inactive: -5.66%.

Turning to `CCCN(CCC)CCNC(=O)c1cc2c(-c3ccccc3F)nn(C)c2s1`, the “growth rescue (activation)” value is inactive: -19.7%.

As to `O=C(Cn1cccc1C(=O)c1ccccc1)NCc1ccc(F)cc1`, the “growth rescue (activation)” value was inactive: 7.35%.

As for `Cc1cc(/C=C(\C#N)C(=O)NC2CC2)c(C)[nH]1`, the “growth rescue (activation)” value was inactive: 2.99%.

For the compound `CC1=C/C(=N\Nc2ccccc2[N+](=O)[O-])CC(C)(C)C1`, the “growth rescue (activation)” value was inactive: -4.06%.

For the compound `Cc1ccc(N(CC(=O)NCc2ccccn2)S(=O)(=O)c2ccccc2)cc1Cl`, the “growth rescue (activation)” value was inactive: 16.2%.

On to `O=C(OCc1ccc([N+](=O)[O-])cc1)c1cc(=O)c2ccccc2o1`, for which the “growth rescue (activation)” value was inactive: -15.9%.

`CC(C)(C)C(=O)CSc1ncnc2c1cnn2Cc1ccccc1`: the “growth rescue (activation)” value was inactive: 2.31%.

Turning to `O=C(CSc1n[nH]c(-c2cccnc2)n1)Nc1ccccc1[N+](=O)[O-]`, the “growth rescue (activation)” value is inactive: -0.651%.

`CCOC(=O)C1=C(c2ccccc2)NC(=O)NC1c1cc(OC)c(OC)cc1OC` (centres undefined): the “growth rescue (activation)” value is inactive: -1.92%.

For the compound `CC(=O)c1c(C)[nH]c(C(=O)OCc2ccc([N+](=O)[O-])cc2)c1C`, the “growth rescue (activation)” value was inactive: -13.2%.

Turning to `CC(C)Cn1c(N)c(C(=O)COC(=O)CC23CC4CC(CC(C4)C2)C3)c(=O)n(C)c1=O`, the “growth rescue (activation)” value is inactive: 17.2%.

For `Cc1cccc(C)c1OCCNC(=O)C(=O)NCc1ccco1`, the “growth rescue (activation)” value was inactive: 7.75%.

For the compound `Cc1ccc(/C=N/n2c(-c3ccncc3)n[nH]c2=S)o1`, the “growth rescue (activation)” value is inactive: 2.39%.

As for `Cc1nc2sc(-c3ccccc3)nn2c(=O)c1Br`, the “growth rescue (activation)” value was inactive: 10.6%.

With `CC(=O)NCCc1nc2ccccc2n1Cc1cc(C)ccc1C`, the “growth rescue (activation)” value is inactive: 3.52%.

For `O=C(CCN1C(=O)c2ccccc2S1(=O)=O)Nc1ccc(F)cc1F`, the “growth rescue (activation)” value was inactive: -4.99%.

`COc1cc(-c2nnco2)cc(OC)c1OC`: the “growth rescue (activation)” value is inactive: 3.3%.

With `CCCN1C(=O)c2cccc3c(N4CCCCC4)ccc(c23)C1=O`, the “growth rescue (activation)” value was inactive: -2.83%.

Consider `COC(=O)c1ccccc1NC(=O)CN1CCN(c2ccccn2)CC1`, for which the “growth rescue (activation)” value is inactive: 4.58%.

With `S=C(NC1CC1)N1CCc2ccccc2C1`, the “growth rescue (activation)” value was inactive: -11.3%.

On to `O=C(NC(=S)NC1C2CC3CC(C2)CC1C3)C12CC3CC(CC(C3)C1)C2` (centres undefined), for which the “growth rescue (activation)” value was inactive: -6.13%.

Turning to `O=c1oc2c(CN3CCN(CCO)CC3)c(O)ccc2cc1-c1ccccn1`, the “growth rescue (activation)” value is inactive: -0.165%.

As to `O=C(O)c1cc(-c2cccc3ccccc23)nc2ccccc12`, the “growth rescue (activation)” value was inactive: 3.11%.

As to `Cc1ccc(NC(=O)CNNC(=O)c2cccc([N+](=O)[O-])c2)cc1[N+](=O)[O-]`, the “growth rescue (activation)” value is inactive: 2.74%.

In the case of `NC(=O)CC1Nc2cccc3cccc(c23)NC1=O` (centres undefined), the “growth rescue (activation)” value is inactive: 6.63%.

`COc1ccc(NC(=O)c2cccc(N3C(=O)C4CC=C(C)CC4C3=O)c2)c(OC)c1` (centres undefined): the “growth rescue (activation)” value is inactive: 8.91%.

Take `CC(=O)Nc1cccc(/C(C)=N/NS(=O)(=O)c2ccccc2)c1`: the “growth rescue (activation)” value was inactive: -1.04%.

Consider `CCCCN(C)S(=O)(=O)c1cc2c(cc1Br)CCN2C(=O)C1CC1`, for which the “growth rescue (activation)” value was inactive: -31.9%.

For the compound `Cc1ccc(N2C(=O)Cc3ccccc3C2=O)cc1`, the “growth rescue (activation)” value is inactive: 17%.

For the compound `CN(C)S(=O)(=O)c1cccc(NC(=O)CNCC2CCCCC2)c1`, the “growth rescue (activation)” value was inactive: 3.64%.

In the case of `O=C(Nc1nnc([C@@H]2O[C@H](CO)[C@@H](O)[C@H]2O)s1)Nc1ccccc1C(F)(F)F`, the “growth rescue (activation)” value is inactive: 0.321%.

`Cc1cc(C(=O)COC(=O)c2ccc(NC(=O)CC#N)cc2)c(C)n1-c1ccc(OC(F)F)cc1`: the “growth rescue (activation)” value was inactive: -3.78%.

Regarding `O=C(CC12CC3CC(CC(C3)C1)C2)NCC(=O)OCc1cc(=O)oc2ccc3ccccc3c12`, the “growth rescue (activation)” value was inactive: 2.73%.

With `O=C(CCCOc1ccc(Cl)cc1Cl)N/N=C/c1ccc(Cl)cc1`, the “growth rescue (activation)” value is inactive: 28.9%.

Consider `C=C(C)c1cccc(C(C)(C)NC(=O)Nc2ccc(C(N)=O)cc2)c1`, for which the “growth rescue (activation)” value was inactive: -15.9%.
